Results on 34 variants are retold here after the supplement of paper PMC7125110.

± gives the standard error. Variants at the background level are over-represented here. Some results are limits rather than exact numbers.

The chains are these.
B1: glmS ribozyme (parent)
chain: AUAAAAGCGCCAGAACUACAGAAAUGUAGUUGACGAGGAGGAGGUUUAUCGAAUUUUCGGCGGAUGCCUCCAAA

Variants of B1 are the subject of the first series. In words: self-cleavage kobs at 2500 uM GlcN6P; higher = faster cleavage; RNA array. The conditions noted are these: with glucosamine-6-phosphate. The procedure, abridged: (§1)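 Barcoded ribozyme variants, transcribed in situ by E. coli RNA polymerase on sequenced MiSeq chips, were followed via a hybridised Cy3 probe at 37 °C. Glucosamine-6-phosphate ranged from 40 μM to 10 mM in HEPES/KCl/Mg(OAc)2 buffer. kobs came from decay fits to per-tile medians, and kcat and KM from weighted Michaelis–Menten fits.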
Consider AUAAAAGCGCCAGAACUACAGAAAUGUAGUUGACUAGGAGGAGGUUAAUCGAAUCUUCGGCGGAUGCCUCCAAA [G35U U47A U55C], for which the “self-cleavage kobs at 2500 uM GlcN6P” value is under 1e-05 s⁻¹. The same measure, in the same setting: the figure for AUAAAAGCGCCAGAACUACAGAAAUGUAGUUGUAGAGGAGGUGGUUUAUCCAAUUUUCGGCGGAUGCCUCCAAA [A33U C34A A42U G51C] is under 1e-05 s⁻¹; for AUAAAAGCGCCAGAACUACAGAAAUGUAGUUGACGGGGAGGAGGUUUAUCGAAUAUUCGGCGGAGGCCUCCAAA [A36G U55A U65G] it is under 1e-05 s⁻¹; for AUAAAAGCGCCAGAACUACAGAAAUGUAGUUGACUAGGAGGUGGUUUAUCGAAUUUUCGGCGGUUGCCUCCAAA [G35U A42U A64U] it is under 1e-05 s⁻¹. On the same count and under the same terms, with AUAAAAGCGCCAGAACUACAGAAAUGUAGUUGAUCAGGAGGAGGUUUAUCAAAUUUUCGGCGGAUGCCUCCAAA [C34U G35C G51A] the figure was under 1e-05 s⁻¹; with AUAAAAGCGCCAGAACUACAGAAAUGUAGUUGACGAUGGGGAGGUUUAUCGAAUUUUCGGCGGAUGCGUCCAAA [G37U A39G C68G], under 1e-05 s⁻¹; with AUAAAAGCGCCAGAACUACAGAAAUGUAGUUGACGACGAAGAGGUUUAUCGAAUUUUCGGCGUAUGCCUCCAAA [G37C G40A G63U], under 1e-05 s⁻¹. On to AUAAAAGCGCCAGAACUACAGAAAUGUAGUUGACUAGGAGAAGGUUUAUCGAACUUUCGGCGGAUGCCUCCAAA [G35U G41A U54C], for which the “self-cleavage kobs at 2500 uM GlcN6P” value is under 1e-05 s⁻¹.

As to AUAAAAGCGCCAGAACUACAGAAAUGUAGUUGACAAGGAGGAAGUUUAUCGAGUUUUCGGCGGAUGUCUCCAAA [G35A G43A A53G C67U], the “self-cleavage kobs at 2500 uM GlcN6P” value is under 1e-05 s⁻¹. As for AUAAAAGCGCCAGAACUACAGAAAUGUAGUUGAAGAUGAGGAGGUUUAUCGAAUUUUCGGCGGGUGCCUCCAAA [C34A G37U A64G], the “self-cleavage kobs at 2500 uM GlcN6P” value was under 1e-05 s⁻¹. Still for that read-out and setting: the figure for AUAAAAGCGCCAGAACUACAGAAAUGUAGUUGACGCGGACGAGGUUUUUCGAAUUUUCGGCGGAUGCCGCCAAA [A36C G40C A48U U69G] is under 1e-05 s⁻¹; for AUAAAAGCGCCAGAACUACAGAAAUGUAGUUGACGACGAGGAGGUUUAUCGAAUUUUCGACGGAUGCUUCCAAA [G37C G60A C68U] it is under 1e-05 s⁻¹. As to AUAAAAGCGCCAGAACUACAGAAAUGUAGUUGACGAGAAGGAGGUUUAUCGGAUUUACGGCGGAUGCAUCCAAA [G38A A52G U57A C68A], the “self-cleavage kobs at 2500 uM GlcN6P” value was determined as 7.01e-05 ± 1.7e-05 s⁻¹.

As to AUAAAAGCGCCAGAACUACAGAAAUGUAGUUGACGAAGAGGAGCUUUAUCGAAUUUUCGACGGAGGCCUCCAAA [G37A G44C G60A U65G], the “self-cleavage kobs at 2500 uM GlcN6P” value is under 1e-05 s⁻¹. With AUAAAAGCGCCAGAACUACAGAAAUGUAGUUGACGUGGUGGAGGUUUAUCGAAUUUUCGGCGGAUGCCUUCAAA [A36U A39U C70U], the “self-cleavage kobs at 2500 uM GlcN6P” value was under 1e-05 s⁻¹. On the same count and under the same terms, the figure for AUAAAAGCGCCAGAACUACAGAAAUGUAGUUGAUGAGGAGGAGGUUUAUCGAAUUUUAGGCGGAUGCUUUCAAA [C34U C58A C68U C70U] is under 1e-05 s⁻¹; for AUAAAAGCGCCAGAACUACAGAAAUGUAGUUGAUGAGGAGGUGGUUUAGCGAAUUUUCGGCGGAUGCCUCCAAA [C34U A42U U49G] it is under 1e-05 s⁻¹; for AUAAAAGCGCCAGAACUACAGAAAUGUAGUUGACGCGGAUGAGGUUGAUCGAAUUUUCGGCGGAUGACUCCAAA [A36C G40U U47G C67A] it is under 1e-05 s⁻¹.

On to AUAAAAGCGCCAGAACUACAGAAAUGUAGUUGAUGAGGAGGAGGUUUAUCGAAUUUUCGGCGUGUGCCUCCAAA [C34U G63U A64G], for which the “self-cleavage kobs at 2500 uM GlcN6P” value came to 0.000111 ± 3.8e-05 s⁻¹. Regarding AUAAAAGCGCCAGAACUACAGAAAUGUAGUUGAUAAGGAGGAGCUUUAUCGAAAUUUCGGCGGAGGCCUCCAAA [C34U G35A G44C U54A U65G], the “self-cleavage kobs at 2500 uM GlcN6P” value was under 1e-05 s⁻¹. Still for that read-out and setting: with AUAAAAGCGCCAGAACUACAGAAAUGUAGUUGACUAUGAGGAUAUUUAUCGAAUUUUCGGCGGAUGCCUCCAAA [G35U G37U G43U G44A] the figure was under 1e-05 s⁻¹; with AUAAAAGCGCCAGAACUACAGAAAUGUAGUUGUCGAGGAGGCGGUUUAACGAAUUUUCGGCGGAUGCCUCCAAA [A33U A42C U49A], under 1e-05 s⁻¹; with AUAAAAGCGCCAGAACUACAGAAAUGUAGUUGUCGACGAGGAGGUUUAUCGAAUUUUCGGCGGAUGCCUGCAAA [A33U G37C C70G], under 1e-05 s⁻¹.

As for AUAAAAGCGCCAGAACUACAGAAAUGUAGUUGAAGAGGAGGAGGUUUAUUGAAUUUUCGGCGGAUGCCUCGAAA [C34A C50U C71G], the “self-cleavage kobs at 2500 uM GlcN6P” value was under 1e-05 s⁻¹. On the same count and under the same terms, the figure for AUAAAAGCGCCAGAACUACAGAAAUGUAGUUGAGGAGUAGGAGGUUUAUCGAAAUUUCGGCGGAUGCCUCGAAA [C34G G38U U54A C71G] is under 1e-05 s⁻¹; for AUAAAAGCGCCAGAACUACAGAAAUGUAGUUGACGCGGAGGACGUUUACCGAAUUUUCGGCGGAUGCCUCCAAA [A36C G43C U49C] it is under 1e-05 s⁻¹.

AUAAAAGCGCCAGAACUACAGAAAUGUAGUUGACGAAGCCAAGGCUUAUCUAAUUUUGGGCGGAUGCCUCCAAA [G37A A39C G40C G41A U45C G51U C58G]: the “self-cleavage kobs at 2500 uM GlcN6P” value was under 1e-05 s⁻¹. On the same count and under the same terms, the figure for AUAAAAGCGCCAGAACUACAGAAAUGUAGUUGACGAGAAGGAGGUUUAUCGAAUCCUCGGCGGAUGCCUCCAAA [G38A U55C U56C] is under 1e-05 s⁻¹. As for AUAAAAGCGCCAGAACUACAGAAAUGUAGUUGAUGAGGUGCAGGUUUAUCGAAUUUUCGGCGGAUGCCGCCAAA [C34U A39U G41C U69G], the “self-cleavage kobs at 2500 uM GlcN6P” value was under 1e-05 s⁻¹.

As to AUAAAAGCGCCAGAACUACAGAAAUGUAGUUGACGUAGAGGAGUUUUGUCGAAUUUUCGGAGGAUGCCUCCAAA [A36U G37A G44U A48G C61A], the “self-cleavage kobs at 2500 uM GlcN6P” value is under 1e-05 s⁻¹. Regarding AUAAAAGCGCCAGAACUACAGAAAUGUAGUUGACUCCGAGGAGGUUUAUCGAUUUUUCGGCGGAUGUCUCCAAA [G35U A36C G37C A53U C67U], the “self-cleavage kobs at 2500 uM GlcN6P” value was under 1e-05 s⁻¹.

For AUAAAAGCGCCAGAACUACAGAAAUGUAGUUGACGAUGAGGUGGUUUAUCGAAGUUACGGCGGAUGACUCCAAA [G37U A42U U54G U57A C67A], the “self-cleavage kobs at 2500 uM GlcN6P” value was under 1e-05 s⁻¹. The same measure, in the same setting: with AUAAAAGCGCCAGAACUACAGAAAUGUAGUUGACGAAGCGGAGGUUUAUCGAAUUUUCCGCGGAUGCCUCCAAA [G37A A39C G59C] the figure was under 1e-05 s⁻¹; with AUAAAAGCGCCAGAACUACAGAAAUGUAGUUGAAUAGGAGGAGGUUUAUCGAAUGUUCGGCGGAUGCCUCCAAA [C34A G35U U55G], under 1e-05 s⁻¹.

Another series covers variants of B1. In words: self-cleavage kobs at 10000 uM GlcN6P; higher = faster cleavage; RNA array. As to conditions: with glucosamine-6-phosphate. In a few lines:
as §1
As for AUAAAAGCGCCAGAACUACAGAAAUGUAGUUGACGACGAGGAGGUUUAUCGAAUUUUCGACGGAUGCUUCCAAA [G37C G60A C68U], the “self-cleavage kobs at 10000 uM GlcN6P” value is under 1e-05 s⁻¹. AUAAAAGCGCCAGAACUACAGAAAUGUAGUUGAUGAGGAGGUGGUUUAGCGAAUUUUCGGCGGAUGCCUCCAAA [C34U A42U U49G]: the “self-cleavage kobs at 10000 uM GlcN6P” value is under 1e-05 s⁻¹.

On to AUAAAAGCGCCAGAACUACAGAAAUGUAGUUGACGCGGAGGACGUUUACCGAAUUUUCGGCGGAUGCCUCCAAA [A36C G43C U49C], for which the “self-cleavage kobs at 10000 uM GlcN6P” value is under 1e-05 s⁻¹.
